In the supplement of paper PMC3334620:
In all, about 33,000 sequences were measured (“E-score (-0.5 to 0.5)”: median about -0.036, highest 2% from about 0.37 on). This is one part of the list.

molecular target: T1, Yer064c (UniProt P40041); assay: PBM E-score (8-mer binding enrichment) (E-score (-0.5 to 0.5)); higher = stronger / more preferred TF binding; most listed sequences are background and not binding sites; settings: protein concentration: 200 nM; construct: GST-full length
T1 sequence: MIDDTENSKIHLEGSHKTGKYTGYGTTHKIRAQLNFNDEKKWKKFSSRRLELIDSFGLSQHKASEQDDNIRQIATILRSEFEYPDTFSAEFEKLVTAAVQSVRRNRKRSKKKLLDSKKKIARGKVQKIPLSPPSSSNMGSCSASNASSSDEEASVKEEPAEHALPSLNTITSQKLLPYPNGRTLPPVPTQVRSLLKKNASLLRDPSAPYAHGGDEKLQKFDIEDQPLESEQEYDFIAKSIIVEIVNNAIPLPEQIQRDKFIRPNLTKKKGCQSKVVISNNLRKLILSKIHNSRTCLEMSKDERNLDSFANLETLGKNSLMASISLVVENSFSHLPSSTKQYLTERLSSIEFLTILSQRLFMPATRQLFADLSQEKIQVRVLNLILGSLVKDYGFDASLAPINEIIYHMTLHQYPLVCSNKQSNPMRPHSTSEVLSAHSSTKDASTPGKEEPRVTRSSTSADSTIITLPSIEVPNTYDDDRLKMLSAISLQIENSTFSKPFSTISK
Description: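 Universal 'all 10-mer' protein binding microarrays (Agilent AMADID 015681) probed with GST-tagged S. cerevisiae TFs (full-length or DBD) made by in vitro transcription/translation (PURExpress), about 100-200 nM. Bound TF was detected with fluorescent anti-GST. Each ungapped 8-mer (which stands for itself and its reverse complement) is scored by the PBM enrichment score (E-score), a modified Wilcoxon-Mann-Whitney statistic from -0.5 to +0.5, computed with the Universal PBM Analysis Suite. Scale: above 0.35 generally sequence-specific binding.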

| Sequence | PBM E-score |
| --- | --- |
| GACTCAAC | 0.472 |
| CTTGCATA | -0.042 |
| AGCAGATA | -0.0243 |
| GATACAAC | 0.0626 |
| ATTTACGG | 0.0752 |
| TGCATGAA | 0.0564 |
| CCACTAAC | 0.105 |
| CACCGTCG | -0.089 |
| GGCCCTTA | -0.258 |
| ACGTAATA | 0.0231 |
| GCAACTCA | 0.0988 |
| AGGGTTCC | -0.147 |
| ACAATAAC | 0.0906 |
| CCGGCGAC | 0.0303 |
| CTGAAGCA | -0.0178 |
| ACAAAAGG | -0.252 |
| CTACCCAG | -0.117 |
| CCGCATCC | -0.211 |
| TAGCCTGA | 0.146 |
| CACTTAGG | 0.0181 |
| ATTATAGA | 0.173 |
| CAGGGGAG | -0.108 |

| Sequence | PBM E-score |
| --- | --- |
| CTCTTCGC | -0.0242 |
| CGGTTACG | -0.00321 |
| ACTTGCCA | -0.0758 |
| CTCATAGC | 0.136 |
| ATGTGAGG | -0.00401 |
| AGGGGGAT | -0.373 |
| GAATTTTA | 0.0356 |
| ACTAGAAC | 0.0195 |
| ATTTATTC | 0.178 |
| GATCGATA | -0.0109 |
| GGTACATA | -0.0874 |
| GAAAACGC | -0.224 |
| CCACAGAA | -0.00862 |
| AATCGCAC | 0.0476 |
| AACACGAT | 0.0177 |
| ATTGGGTA | -0.138 |
| GTTTATCA | 0.172 |
| ACGCGTTA | -0.0792 |
| ACGAGTTG | -0.0661 |
| GGAATGCA | -0.285 |
| AGAGACTG | 0.0785 |
| AGTTAGAT | 0.122 |

| Sequence | PBM E-score |
| --- | --- |
| ACTCGCCA | 0.0822 |
| ACCGAGCA | -0.0642 |
| ATCACCGC | 0.187 |
| AACCTCGG | -0.0239 |
| GGTTAGAC | 0.0853 |
| CTTAGAAA | -0.018 |
| CGCGCGGA | 0.0985 |
| CTCGCCTC | -0.326 |
| CTGGATAC | -0.141 |
| CTGCTCGC | -0.0973 |
| ATTCTGCC | -0.135 |
| AAGTTCTG | 0.0281 |
| TAGCAGGA | -0.106 |
| AATAGAAG | 0.0254 |
| CAGAGACC | -0.0889 |
| GGGCGAAA | -0.103 |
| CACGAACC | -0.164 |
| AACATGAT | 0.335 |
| AAACACAC | 0.0803 |
| TAATCCTA | 0.0784 |
| AAGCGATC | -0.1 |
| ACCTACAT | -0.194 |

| Sequence | PBM E-score |
| --- | --- |
| GGGGCTAC | -0.0498 |
| ACGGTACT | -0.0665 |
| GGATAGAC | 0.0932 |
| CGCAAGAG | 0.0483 |
| GATAGGAC | -0.0209 |
| CATCAACG | 0.0798 |
| ACATCACT | -0.0672 |
| GGGTTAGA | -0.119 |
| ACGACATG | -0.0453 |
| TGGTACCA | -0.329 |
| CAGCAATC | 0.0201 |
| CTATTCAC | -0.0554 |
| AAAACCCG | -0.37 |
| CAAGAAGA | 0.152 |
| AAGAGTGT | 0.0229 |
| CAAAAACC | 0.0426 |
| GCATTACA | -0.0842 |
| GCTGGGGA | -0.262 |
| CTCGCACA | -0.021 |
| CTGACAGC | -0.214 |
